# Reference: patent US6844168 (CHIRON, dated 2005)
# T1: EC-FGF receptor (extracellular region of the human FGF receptor flg 5, amino acids 1-374, expressed in … (human, UniProt P11362 22-376, N-linked oligosaccharides (glycoprotein, Mr 58,000; sites not assigned))
# T1 construct: The N-terminus of the secreted protein was not determined; Purified on lentil lectin Sepharose; also called sFGF-R; soluble FGF-R
# T1 sequence: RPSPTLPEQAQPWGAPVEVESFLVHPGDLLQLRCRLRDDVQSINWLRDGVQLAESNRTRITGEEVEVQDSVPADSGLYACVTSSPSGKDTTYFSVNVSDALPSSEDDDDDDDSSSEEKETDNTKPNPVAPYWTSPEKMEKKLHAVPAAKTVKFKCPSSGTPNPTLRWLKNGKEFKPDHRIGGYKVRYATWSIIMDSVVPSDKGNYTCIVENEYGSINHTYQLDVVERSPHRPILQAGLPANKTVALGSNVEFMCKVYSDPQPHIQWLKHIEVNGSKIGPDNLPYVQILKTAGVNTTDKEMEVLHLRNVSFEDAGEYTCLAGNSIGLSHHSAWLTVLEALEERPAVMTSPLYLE
# B1: Human basic FGF (recombinant, produced in yeast) (ligand)
# chain: not shown
# modifications: radioiodinated (125I) where used as tracer; residues not stated
# notes: also called bFGF
# Molecular target: T1, EC-FGF receptor (extracellular region …)
# Experiment: soluble binding assay: EC-FGF receptor on concanavalin A coated wells, 125I-bFGF with increasing concentrations of bFGF, Scatchard analysis
# Experimental: The FGF binding properties of EC-FGF receptor was determined using a soluble binding assay (adapted from the assay described by J. E. Robinson et al, *J Immunol Meth* (1990) 132:63–71).
binder,measurement,value
B1,Kd,< 5 nM
